Measurements taken from ChEMBL document CHEMBL4888484, “Replenishing the malaria drug discovery pipeline: Screening and hit evaluation of the MMV Hit Generation Library 1 (HGL1) against asexual blood stage Plasmodium falciparum ,using a nano luciferase reporter read-out” (2022).
Among all 150,000 compounds or so, about 540 (0.36%) showed an effect of 50% or more. The list shows a part of the results.

Tested on: Plasmodium falciparum
Assay: Primary screen in NF54 nanoGlo assay, in single point, at 2uM, 72h; a lower Z score goes with more inhibition
Format: functional, Erythrocyte
Details: timepoint 72 hour

In order of falling “% Inhibition” value:
1. COc1ccccc1NC(=O)[C@H]1CCCN(S(=O)(=O)Cc2ccccc2C)C1  14%
2. COc1ccc(CN2C[C@H]3CC[C@@H](C2)N(C(=O)c2ccc(N)nc2)C3)cc1  5%
3. COc1ccc(CNc2nc(NCc3ccc(OC)c(OC)c3)n(C(=O)c3ccncc3)n2)cc1OC  3%
4. C=CCNC(=O)N[C@H](CCO)c1ccccc1  1%
5. COCC(C)(C)N1CCN(S(=O)(=O)N2CCc3ccccc3C2)CC1  0%
6. CN[C@@H](C(=O)N(C)Cc1ccc(OC)c(C)c1)c1cnn(C)c1  0%
7. C[C@H]1CN(c2cc(Cl)ccc2Cl)CCN1C(=O)c1cc[nH]c(=O)c1  -1%
8. CCOC(=O)c1cc(S(=O)(=O)N2CCC[C@H]2C(=O)Nc2ccc(OCC)cc2)cn1C  -2%
9. CC(=O)N1Cc2ccccc2C[C@H]1C(=O)N1CCc2cnccc21  -3%
10. CN1CCCCC[C@H]1C(=O)NC1(CO)CCCC1  -4%
11. Cc1cc(C)n(-c2nc3c(c(=O)n2CC(=O)N2CCCCC2)CCCC3)n1  -4%
12. O=C(C1CC12CCc1ccccc12)N1CCCC(n2ccnn2)C1 (stereo not drawn)  -5%
13. CNC(=O)C[C@H](C)N(C)C(=O)Cc1c(F)cccc1Cl  -7%
14. c1ccc(-c2nc(N3CCN(CC4CC4)CC3)no2)cc1  -8%
15. Cc1cc2nn(CC(=O)Nc3cc(F)cc(F)c3)c(=O)n2c(Nc2ccc(C)c(F)c2)n1  -10%
16. COc1ccc(C(C)NCC2(O)CCOC2)c(Br)c1 (stereo not drawn)  -10%
17. Cc1cc(CN[C@@H](C)CN(C)C(C)C)cnc1C  -10%
18. COc1cccc(CNC(=O)C(=O)NC[C@H](O)c2cccc3ccccc23)c1  -11%
19. CN(C)C(=O)OCCOc1cccc(Cl)c1C#N  -11%
20. COc1ccc(Cn2nnc3ccccc3c2=O)cn1  -12%
21. O=C(NCc1ccncc1)c1cc(Br)c[nH]1  -12%
22. CC(C)c1noc(Cc2ccc(NS(=O)(=O)C3CC3)cc2)n1  -12%
23. CCc1[nH]nc(NC(=O)c2cscn2)c1C  -13%
24. Cc1nn(CC2CC2)c(=O)n1CC(F)(F)F  -31%

In order of rising Z score:
1. COc1ccccc1NC(=O)[C@H]1CCCN(S(=O)(=O)Cc2ccccc2C)C1  -1.8
2. COc1ccc(CN2C[C@H]3CC[C@@H](C2)N(C(=O)c2ccc(N)nc2)C3)cc1  -1.02
3. COc1ccc(CNc2nc(NCc3ccc(OC)c(OC)c3)n(C(=O)c3ccncc3)n2)cc1OC  -0.33
4. C=CCNC(=O)N[C@H](CCO)c1ccccc1  -0.24
5. CN[C@@H](C(=O)N(C)Cc1ccc(OC)c(C)c1)c1cnn(C)c1  -0.05
6. COCC(C)(C)N1CCN(S(=O)(=O)N2CCc3ccccc3C2)CC1  -0.01
7. C[C@H]1CN(c2cc(Cl)ccc2Cl)CCN1C(=O)c1cc[nH]c(=O)c1  0.29
8. CC(=O)N1Cc2ccccc2C[C@H]1C(=O)N1CCc2cnccc21  0.35
9. CCOC(=O)c1cc(S(=O)(=O)N2CCC[C@H]2C(=O)Nc2ccc(OCC)cc2)cn1C  0.44
10. Cc1cc(C)n(-c2nc3c(c(=O)n2CC(=O)N2CCCCC2)CCCC3)n1  0.56
11. CN1CCCCC[C@H]1C(=O)NC1(CO)CCCC1  0.61
12. c1ccc(-c2nc(N3CCN(CC4CC4)CC3)no2)cc1  0.89
13. O=C(C1CC12CCc1ccccc12)N1CCCC(n2ccnn2)C1 (stereo not drawn)  0.96
14. O=C(NCc1ccncc1)c1cc(Br)c[nH]1  1
15. CNC(=O)C[C@H](C)N(C)C(=O)Cc1c(F)cccc1Cl  1.02
16. CN(C)C(=O)OCCOc1cccc(Cl)c1C#N  1.07
17. Cc1cc2nn(CC(=O)Nc3cc(F)cc(F)c3)c(=O)n2c(Nc2ccc(C)c(F)c2)n1  1.11
18. CC(C)c1noc(Cc2ccc(NS(=O)(=O)C3CC3)cc2)n1  1.25
19. COc1ccc(Cn2nnc3ccccc3c2=O)cn1  1.37
20. COc1ccc(C(C)NCC2(O)CCOC2)c(Br)c1 (stereo not drawn)  1.42
21. Cc1cc(CN[C@@H](C)CN(C)C(C)C)cnc1C  1.45
22. COc1cccc(CNC(=O)C(=O)NC[C@H](O)c2cccc3ccccc23)c1  1.84
23. CCc1[nH]nc(NC(=O)c2cscn2)c1C  2.09
24. Cc1nn(CC2CC2)c(=O)n1CC(F)(F)F  4.58
